In the supplement of paper PMC10126150:
Values marked as one replicate rest on one cluster of the flow cell; about a third of the high ones do not repeat.

System: ATP
Test: switch fluorescence ratio, 500 uM ATP over buffer (Cy3 cluster intensity, sum of 5 cycles each) (fold (ratio)); higher = stronger signal-on switching upon ATP binding; sequences stand for … in TCGTCGGCAGCGTCAGATGTGTATAAGAGACAGTTTTTTTTTTTTTTTTTTTTTTTTT…TC
Conditions: aptamer strand: ATP DNA aptamer (quencher-CACCTGGGGGAGTATTGCGGAGGAAGG + anchor), 100 nM annealed; ATP concentration: 500 uM; one replicate
Summary of the method: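 Clusters carrying Cy3-labelled switching strands on a modified Illumina MiSeq flow-cell were annealed to 100 nM quencher-labelled ATP aptamer and imaged in selection buffer. They were imaged again after 15 min with 500 uM ATP at 22 °C, over five buffer/ATP cycles with NaOH stripping and re-annealing in between. For each cluster, the fluorescence ratio is the summed Cy3 intensity of the target cycles divided by that of the buffer cycles, averaged per switch-domain sequence. Clusters outside 100-1000 RFU were left out.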
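Further: ATP exposure 15 min at 22 °C before imaging.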

Sequence | switch fluorescence ratio
CCTTACAATG | 1.31
CCTTACTGTG | 1.09
CCTTAGCTTG | 1.16
CCTTATACAA | 1.16
CCTTCAAGCT | 1.63
CCTTCAATGT | 1.55
CCTTCGGGTT | 2.33
CCTTCTAATC | 2.12
CCTTGAATTT | 0.99
CCTTGAGGTT | 1.05
CCTTGCTTGG | 1.06
CCTTGGAACA | 1.01
CCTTGGCGTA | 1.04
CCTTGGTAGT | 1.04
CCTTGTCGTA | 0.998
CCTTGTCTTT | 0.982
CCTTGTGGGC | 1.01
CCTTTAACAT | 1.01
CCTTTAGTTG | 0.968
CCTTTATTCA | 1.05
CCTTTCATGT | 1.01
CCTTTCTGCA | 1.58
CCTTTGGAAA | 1.04
CCTTTGGCAA | 4.82
CCTTTGGG | 1.02

Sequence | switch fluorescence ratio
CCTTTTAAGG | 1.02
CCTTTTCCT | 1.45
CCTTTTGCCG | 1.13
CCTTTTGTAG | 1.05
CGAAAACGTA | 0.982
CGAAAAGGAT | 0.99
CGAAAATTTC | 1.04
CGAAAGAATA | 4.6
CGAAAGGGAA | 0.985
CGAAAGGGAT | 3.66
CGAAATACGA | 2.85
CGAAATATCA | 1.06
CGAAATTCGG | 1
CGAACAAGGA | 1.19
CGAACGCGTC | 1.3
CGAACGTACA | 1.9
CGAACGTAGG | 1.01
CGAACTGAAC | 1.15
CGAAGGTGTA | 1.05
CGAAGTCCCG | 0.984
CGAATAAGGG | 0.983
CGAATCGGAA | 1.04
CGAATGATAG | 0.959
CGAATGCCCA | 1.01
CGACAAAGGG | 0.988

Sequence | switch fluorescence ratio
CGACAAGTTA | 1.06
CGACACTAAC | 1.81
CGACAGCTGG | 1.04
CGACAGGCGG | 0.982
CGACATCCGT | 1.06
CGACATTCAG | 1.01
CGACATTTCT | 1.05
CGACGAGACT | 1.4
CGACGATCTT | 1.01
CGACGGAACC | 3.26
CGACGGTGCC | 1.1
CGACGTAGG | 0.993
CGACGTTAAG | 0.959
CGACGTTCGA | 1.04
CGACTCAGAA | 1.07
CGACTGGGGA | 1.14
CGACTGGTTT | 1.04
CGACTGTCTC | 1.07
CGACTTGCGC | 1.09
CGACTTGTTG | 1.03
CGAGAAACAG | 0.97
CGAGAAGTGG | 0.976
CGAGACGTTC | 0.974
CGAGACTCAC | 1.07
CGAGAGATTT | 1.02

Sequence | switch fluorescence ratio
CGAGAGGCTC | 0.978
CGAGATTTAA | 1.01
CGAGATTTAG | 1.02
CGAGATTTTG | 0.958
CGAGCAGTAT | 1.73
CGAGCCAGTG | 1.13
CGAGCCGGTG | 1.19
CGAGCGTGGG | 1.02
CGAGCTCATC | 1.01
CGAGCTGGAG | 1.04
CGAGCTGTGG | 1.06
CGAGGACCGA | 1.03
CGAGGCTCTT | 1.04
CGAGGGCACG | 1.01
CGAGGTATGA | 1.04
CGAGGTGTGG | 1.04
CGAGTACAAG | 0.982
CGAGTATTAG | 1
CGAGTCTCAG | 1.03
CGAGTGGGCG | 1.1
CGAGTTAACT | 0.989
CGAGTTGCAG | 1
CGATAAGGTT | 0.963
CGATAAGTTG | 0.986
CGATACTTC | 1.12

Sequence | switch fluorescence ratio
CGATAGCTAA | 1.09
CGATAGGACA | 0.997
CGATAGTCAT | 1.02
CGATAGTGTA | 1.01
CGATATACCA | 1.18
CGATATTAAT | 0.946
CGATCACGCG | 0.985
CGATCAGTTA | 0.984
CGATCCCTGT | 1.06
CGATCGTCCA | 1.01
CGATCTAATG | 0.966
CGATCTATT | 1
CGATCTATTT | 1
CGATCTCAG | 1.03
CGATGACCAC | 1.05
CGATGAGCT | 1.01
CGATGATGTC | 1.08
CGATGCTCG | 0.949
CGATGGATG | 1.17
CGATGTGCTC | 1.08
CGATGTTATT | 1.04
CGATTAGCAA | 1.73
CGATTATCAC | 0.927
CGATTATTTA | 0.966
CGATTCAGTG | 0.959

Sequence | switch fluorescence ratio
CGATTCGGC | 0.974
CGATTGCTGA | 0.995
CGATTGCTTA | 1.04
CGATTGGCTA | 0.981
CGATTTAGG | 1.01
CGATTTCCGC | 1.4
CGATTTCGGC | 0.926
CGATTTCTGA | 1.02
CGATTTGCTC | 0.994
CGCAAAGTTT | 0.992
CGCAACAGAG | 1.2
CGCAATCCGG | 4.21
CGCACAACAA | 1.1
CGCACCGAGG | 1.05
CGCACTATCC | 2.7
CGCACTGCTA | 1.19
CGCAGAAGTC | 1.13
CGCAGAGCGC | 1.05
CGCAGAGGA | 1.03
CGCAGCAGGG | 3.61
CGCAGGGGTT | 1.18
CGCAGTAGGT | 1.1
CGCATAATTT | 1.07
CGCATGACAG | 1
CGCATGCTAC | 4.31

Sequence | switch fluorescence ratio
CGCATGGGCA | 0.943
CGCATGTGT | 0.985
CGCATTAGTA | 1.09
CGCATTGAGG | 0.998
CGCATTGCTA | 1.62
CGCCAAGGGC | 0.987
CGCCACTTAA | 1
CGCCAGGAGC | 1.05
CGCCAGTCGG | 0.986
CGCCATTTGG | 0.999
CGCCCTATGT | 1.04
CGCCCTGTCT | 1.02
CGCCGACTAT | 1.16
CGCCGAGTGG | 1.06
CGCCGCGCTG | 1.16
CGCCGCTGTG | 1.4
CGCCGGCGCG | 1.01
CGCCTAACTG | 1.02
CGCCTCTGAT | 0.987
CGCCTGGTCG | 0.968
CGCCTTAAAA | 0.989
CGCCTTATGG | 1.03
CGCGAACCCA | 1.03
CGCGACAGGC | 1.02
CGCGAGAGGG | 1.01

Sequence | switch fluorescence ratio
CGCGAGGGAG | 1.02
CGCGAGGTCC | 1.1
CGCGAGTTG | 1.04
CGCGATCAGG | 1.24
CGCGATGGGA | 1.03
CGCGCCAATT | 1.12
CGCGCGAAGG | 1.02
CGCGCTATGA | 1.04
CGCGCTCACT | 1.34
CGCGGAATGG | 1.06
CGCGGAGAGT | 1.01
CGCGGATTCG | 1.04
CGCGGCACCT | 1.11
CGCGGGAATC | 1.14
CGCGGGAGGT | 0.976
CGCGGGCCG | 1
CGCGGGTGCG | 0.998
CGCGGTACTG | 3.7
CGCGGTCGGC | 1.03
CGCGTATCGA | 0.989
CGCGTATCTC | 1.19
CGCGTGCCGC | 1.02
CGCGTGGGTC | 1.1
CGCGTTCCGG | 1.01
CGCTAACGGA | 1.1
